Measurements from article PMC5700166.
This is a selection; strong and weak results do not stand in their true shares. The list includes weakly bound sequences.

Biological target: T1, GST-Ap-NF-kB RHD (UniProt A0A913YAJ5)
T1 sequence: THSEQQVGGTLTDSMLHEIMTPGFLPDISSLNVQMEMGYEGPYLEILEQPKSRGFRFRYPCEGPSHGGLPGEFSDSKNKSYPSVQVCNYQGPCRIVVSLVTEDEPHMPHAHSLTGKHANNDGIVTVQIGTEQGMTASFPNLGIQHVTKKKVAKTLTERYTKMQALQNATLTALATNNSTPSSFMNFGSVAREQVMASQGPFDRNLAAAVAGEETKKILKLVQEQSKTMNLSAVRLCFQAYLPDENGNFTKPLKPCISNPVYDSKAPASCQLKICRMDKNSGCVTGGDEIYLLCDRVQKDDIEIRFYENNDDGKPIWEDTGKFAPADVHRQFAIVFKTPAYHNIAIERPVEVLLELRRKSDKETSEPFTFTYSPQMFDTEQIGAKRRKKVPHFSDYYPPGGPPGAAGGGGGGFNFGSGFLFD
Experiment: protein-binding microarray (PBM)
Conditions: PBM: ~300 nM protein, 6 mM HEPES pH 7.8, 80 mM KCl, 0.5 mM EDTA, 0.5 mM EGTA, 6% glycerol, 35 ng/ul poly-dIdC, 1% milk, 1 h, room temperature; Ap Aiptasia and Nv Nematostella (sea anemones) / Co Capsaspora / Aq Amphimedon (sponge) / Dm Drosophila / Hu human; RHD is the Rel homology domain; high values mean tight binding; most listed sequences are background and not binding sites; double strand, one strand shown

| Sequence | binding signal |
| --- | --- |
| CCGATTAACATCAATTTTCCCCCTGATGTTAATCGGGTCTTGATTCGCTTGACGCTGCTG | 7.68 z-score |
| CCGATTAACATCAGGGGAGTTCATGATGTTAATCGGGTCTTGATTCGCTTGACGCTGCTG | 5.95 z-score |
| CCGATTAACATCAAAAACCCCCTTGATGTTAATCGGGTCTTGATTCGCTTGACGCTGCTG | 10.4 z-score |
| CCGATTAACATCAGGGGAACCCCTGATGTTAATCGGGTCTTGATTCGCTTGACGCTGCTG | 12.5 z-score |
| CCGATTAACATCAATAAACCCCCTGATGTTAATCGGGTCTTGATTCGCTTGACGCTGCTG | 7.76 z-score |
| CCGATTAACATCATCAGGGGAAATGATGTTAATCGGGTCTTGATTCGCTTGACGCTGCTG | 5.62 z-score |
| CCGATTAACATCAGAAAAATACCTGATGTTAATCGGGTCTTGATTCGCTTGACGCTGCTG | 1.31 z-score |
| CCGATTAACATCAGAAACTTCCCTGATGTTAATCGGGTCTTGATTCGCTTGACGCTGCTG | 4.46 z-score |
| CCGATTAACATCACGGGAAATTCTGATGTTAATCGGGTCTTGATTCGCTTGACGCTGCTG | 5.1 z-score |
| CCGATTAACATCAACCAATTCCCTGATGTTAATCGGGTCTTGATTCGCTTGACGCTGCTG | 2.49 z-score |
| CCGATTAACATCACAAATTTCCCTGATGTTAATCGGGTCTTGATTCGCTTGACGCTGCTG | 4.62 z-score |
| CCGATTAACATCAGGGATTCTCATGATGTTAATCGGGTCTTGATTCGCTTGACGCTGCTG | 2.96 z-score |
| CCGATTAACATCAGGGAAACCCCTGATGTTAATCGGGTCTTGATTCGCTTGACGCTGCTG | 10.6 z-score |
| CCGATTAACATCACCTTGAACGGTGATGTTAATCGGGTCTTGATTCGCTTGACGCTGCTG | -0.354 z-score |
| CCGATTAACATCAGTTTTCCCCATGATGTTAATCGGGTCTTGATTCGCTTGACGCTGCTG | 6.49 z-score |
| CCGATTAACATCAAGGTTTCCCCTGATGTTAATCGGGTCTTGATTCGCTTGACGCTGCTG | 7.4 z-score |
| CCGATTAACATCAAGAAAGTCCCTGATGTTAATCGGGTCTTGATTCGCTTGACGCTGCTG | 7.56 z-score |
| CCGATTAACATCAGGGAGTCACCTGATGTTAATCGGGTCTTGATTCGCTTGACGCTGCTG | 3.25 z-score |
| CCGATTAACATCAGGCTATCCCCTGATGTTAATCGGGTCTTGATTCGCTTGACGCTGCTG | 4.44 z-score |
| CCGATTAACATCAGGGGGAAACCTGATGTTAATCGGGTCTTGATTCGCTTGACGCTGCTG | 8.24 z-score |
| CCGATTAACATCACGAAAGTCCCTGATGTTAATCGGGTCTTGATTCGCTTGACGCTGCTG | 6.26 z-score |
| CCGATTAACATCACGGAAAAAACTGATGTTAATCGGGTCTTGATTCGCTTGACGCTGCTG | 0.665 z-score |
| CCGATTAACATCAGGGATTCCCCTGATGTTAATCGGGTCTTGATTCGCTTGACGCTGCTG | 13.9 z-score |
| CCGATTAACATCAAGAATCCCCCTGATGTTAATCGGGTCTTGATTCGCTTGACGCTGCTG | 9.83 z-score |
| CCGATTAACATCAGGAAACTACCTGATGTTAATCGGGTCTTGATTCGCTTGACGCTGCTG | 1.63 z-score |
| CCGATTAACATCAACCCCAGCTCTGATGTTAATCGGGTCTTGATTCGCTTGACGCTGCTG | 1.01 z-score |
